According to article PMC9911399, “Two distinct binding modes provide the RNA-binding protein RbFox with extraordinary sequence specificity”:
Residue numbers refer to the chain shown, from its start. Some of the results follow.

B1: CCCAAGA (DNA:RNA)
RNA: GGGAGACCGGAAUUCAGAUUGUCCCCCAAGAUUAAAUCCCGUCGUAGCCACCA
DNA 1: CAATCTGAATTCCGGTCTCCC
DNA 2: TGGTGGCTACGACGGGATT
B2: UAUGCAG (DNA:RNA)
RNA: GGGAGACCGGAAUUCAGAUUGUCCUAUGCAGUUAAAUCCCGUCGUAGCCACCA
DNA 1: CAATCTGAATTCCGGTCTCCC
DNA 2: TGGTGGCTACGACGGGATT
B3: CUUCAUU (DNA:RNA)
RNA: B1 RNA with C26U, C27U, A28C, G30U, A31U
DNA 1: CAATCTGAATTCCGGTCTCCC
DNA 2: TGGTGGCTACGACGGGATT
B4: GUCUCGU (DNA:RNA)
RNA: B1 RNA with C25G, C26U, A28U, A29C, A31U
DNA 1: CAATCTGAATTCCGGTCTCCC
DNA 2: TGGTGGCTACGACGGGATT
B5: AUACAAU (DNA:RNA)
RNA: B1 RNA with C25A, C26U, C27A, A28C, G30A, A31U
DNA 1: CAATCTGAATTCCGGTCTCCC
DNA 2: TGGTGGCTACGACGGGATT
B6: CUAAUUC (DNA:RNA)
RNA: B1 RNA with C26U, C27A, A29U, G30U, A31C
DNA 1: CAATCTGAATTCCGGTCTCCC
DNA 2: TGGTGGCTACGACGGGATT
B7: UUGAACU (DNA:RNA)
RNA: B1 RNA with C25U, C26U, C27G, G30C, A31U
DNA 1: CAATCTGAATTCCGGTCTCCC
DNA 2: TGGTGGCTACGACGGGATT
B8: CAGGUAG (DNA:RNA)
RNA: B2 RNA with U25C, U27G, C29U
DNA 1: CAATCTGAATTCCGGTCTCCC
DNA 2: TGGTGGCTACGACGGGATT
B9: AGGACCC (DNA:RNA)
RNA: B1 RNA with C25A, C26G, C27G, A29C, G30C, A31C
DNA 1: CAATCTGAATTCCGGTCTCCC
DNA 2: TGGTGGCTACGACGGGATT
B10: UAUAACG (DNA:RNA)
RNA: B2 RNA with G28A, C29A, A30C
DNA 1: CAATCTGAATTCCGGTCTCCC
DNA 2: TGGTGGCTACGACGGGATT
B11: UGAAGCG (DNA:RNA)
RNA: B2 RNA with A26G, U27A, G28A, C29G, A30C
DNA 1: CAATCTGAATTCCGGTCTCCC
DNA 2: TGGTGGCTACGACGGGATT
B12: GACUUUG (DNA:RNA)
RNA: B2 RNA with U25G, U27C, G28U, C29U, A30U
DNA 1: CAATCTGAATTCCGGTCTCCC
DNA 2: TGGTGGCTACGACGGGATT
B13: GUUAGGC (DNA:RNA)
RNA: B1 RNA with C25G, C26U, C27U, A29G, A31C
DNA 1: CAATCTGAATTCCGGTCTCCC
DNA 2: TGGTGGCTACGACGGGATT
B14: GGAACUC (DNA:RNA)
RNA: B1 RNA with C25G, C26G, C27A, A29C, G30U, A31C
DNA 1: CAATCTGAATTCCGGTCTCCC
DNA 2: TGGTGGCTACGACGGGATT
B15: UUUGCCU (DNA:RNA)
RNA: B2 RNA with A26U, A30C, G31U
DNA 1: CAATCTGAATTCCGGTCTCCC
DNA 2: TGGTGGCTACGACGGGATT
B16: UCAGCGG (DNA:RNA)
RNA: B2 RNA with A26C, U27A, A30G
DNA 1: CAATCTGAATTCCGGTCTCCC
DNA 2: TGGTGGCTACGACGGGATT
B17: CCACCGC (DNA:RNA)
RNA: B1 RNA with C27A, A28C, A29C, A31C
DNA 1: CAATCTGAATTCCGGTCTCCC
DNA 2: TGGTGGCTACGACGGGATT
B18: AUGAGUG (DNA:RNA)
RNA: B1 RNA with C25A, C26U, C27G, A29G, G30U, A31G
DNA 1: CAATCTGAATTCCGGTCTCCC
DNA 2: TGGTGGCTACGACGGGATT
B19: ACAUGGU (DNA:RNA)
RNA: B1 RNA with C25A, C27A, A28U, A29G, A31U
DNA 1: CAATCTGAATTCCGGTCTCCC
DNA 2: TGGTGGCTACGACGGGATT
B20: CGAGGGG (DNA:RNA)
RNA: B1 RNA with C26G, C27A, A28G, A29G, A31G
DNA 1: CAATCTGAATTCCGGTCTCCC
DNA 2: TGGTGGCTACGACGGGATT
B21: CCCCGGA (DNA:RNA)
RNA: B1 RNA with A28C, A29G
DNA 1: CAATCTGAATTCCGGTCTCCC
DNA 2: TGGTGGCTACGACGGGATT
B22: UGGUGCU (DNA:RNA)
RNA: B2 RNA with A26G, U27G, G28U, C29G, A30C, G31U
DNA 1: CAATCTGAATTCCGGTCTCCC
DNA 2: TGGTGGCTACGACGGGATT
B23: GGGCCGC (DNA:RNA)
RNA: B1 RNA with C25G, C26G, C27G, A28C, A29C, A31C
DNA 1: CAATCTGAATTCCGGTCTCCC
DNA 2: TGGTGGCTACGACGGGATT
B24: CCAUCCG (DNA:RNA)
RNA: B1 RNA with C27A, A28U, A29C, G30C, A31G
DNA 1: CAATCTGAATTCCGGTCTCCC
DNA 2: TGGTGGCTACGACGGGATT
B25: AUCCCGG (DNA:RNA)
RNA: B1 RNA with C25A, C26U, A28C, A29C, A31G
DNA 1: CAATCTGAATTCCGGTCTCCC
DNA 2: TGGTGGCTACGACGGGATT
B26: CUGACUG (DNA:RNA)
RNA: B1 RNA with C26U, C27G, A29C, G30U, A31G
DNA 1: CAATCTGAATTCCGGTCTCCC
DNA 2: TGGTGGCTACGACGGGATT
B27: AAUUGGG (DNA:RNA)
RNA: B2 RNA with U25A, G28U, C29G, A30G
DNA 1: CAATCTGAATTCCGGTCTCCC
DNA 2: TGGTGGCTACGACGGGATT
B28: CAAAAGG (DNA:RNA)
RNA: B1 RNA with C26A, C27A, A31G
DNA 1: CAATCTGAATTCCGGTCTCCC
DNA 2: TGGTGGCTACGACGGGATT
B29: GCAAAUC (DNA:RNA)
RNA: B1 RNA with C25G, C27A, G30U, A31C
DNA 1: CAATCTGAATTCCGGTCTCCC
DNA 2: TGGTGGCTACGACGGGATT
B30: GUAUGGC (DNA:RNA)
RNA: B1 RNA with C25G, C26U, C27A, A28U, A29G, A31C
DNA 1: CAATCTGAATTCCGGTCTCCC
DNA 2: TGGTGGCTACGACGGGATT
B31: CCUGGUG (DNA:RNA)
RNA: B2 RNA with U25C, A26C, C29G, A30U
DNA 1: CAATCTGAATTCCGGTCTCCC
DNA 2: TGGTGGCTACGACGGGATT

Biological target: T1, RBFOX1 RRM RbFoxmut (Fox-RRM*) (Homo sapiens, UniProt Q9NWB1 109-208, R118D;E147R;N151S;E152T)
T1 sequence: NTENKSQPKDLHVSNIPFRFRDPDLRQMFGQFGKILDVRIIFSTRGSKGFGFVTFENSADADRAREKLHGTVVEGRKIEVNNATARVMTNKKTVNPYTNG
Experiment: EMSA; HiTS-Eq, 1 nM pool, 10 min; buffer printed only for the single-RNA assays: 10 mM Tris pH 7.5, 150 mM NaCl, 3.4 mM EDTA, 0.001% NP-40, 30 C
Settings: tags: His6 N-terminal (pET28a); label: 5' 32P
Summary of the method: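 Purified RbFox RRM, wild type or mutant, was incubated for 10 min in 50 µL with 1 nM of a 5′-radiolabelled RNA pool carrying 7 randomized nucleotides, whose flanks were annealed to DNA oligonucleotides, over a series of increasing protein concentrations. Unbound RNA was resolved on 8% native PAGE, cut out, reverse-transcribed, barcoded by PCR and sequenced on an Illumina HiSeq 2500. Relative association constants were derived from changes in read counts for each RNA species versus the control reaction and normalised to the cognate motif.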

Binder | binding signal
B1 | 0.0867 KA relative to UGCAUGU
B2 | 0.0975 KA relative to UGCAUGU
B3 | 0.11 KA relative to UGCAUGU
B4 | 0.292 KA relative to UGCAUGU
B5 | 0.0644 KA relative to UGCAUGU
B6 | 0.0596 KA relative to UGCAUGU
B7 | 0.108 KA relative to UGCAUGU
B8 | 0.135 KA relative to UGCAUGU
B9 | 0.0734 KA relative to UGCAUGU
B10 | 0.106 KA relative to UGCAUGU
B11 | 0.1 KA relative to UGCAUGU
B12 | 0.0901 KA relative to UGCAUGU
B13 | 0.074 KA relative to UGCAUGU
B14 | 0.0537 KA relative to UGCAUGU
B15 | 0.122 KA relative to UGCAUGU
B16 | 0.0903 KA relative to UGCAUGU

Binder | binding signal
B17 | 0.0779 KA relative to UGCAUGU
B18 | 0.287 KA relative to UGCAUGU
B19 | 0.126 KA relative to UGCAUGU
B20 | 0.0611 KA relative to UGCAUGU
B21 | 0.0951 KA relative to UGCAUGU
B22 | 0.109 KA relative to UGCAUGU
B23 | 0.116 KA relative to UGCAUGU
B24 | 0.103 KA relative to UGCAUGU
B25 | 0.0557 KA relative to UGCAUGU
B26 | 0.162 KA relative to UGCAUGU
B27 | 0.0731 KA relative to UGCAUGU
B28 | 0.0588 KA relative to UGCAUGU
B29 | 0.0754 KA relative to UGCAUGU
B30 | 0.237 KA relative to UGCAUGU
B31 | 0.109 KA relative to UGCAUGU
